Measurements as given in the supplement of paper PMC11417369.
± gives the standard deviation of the averaged measurements. This is one part of the list.

What follows are sequences tested on PfAP2-LT AP2 domain (GST-tagged) (assay: gcPBM binding intensity (ln(normalized median fluorescence intensity)); higher = stronger DNA binding).
In short: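 GST-tagged P. falciparum DNA-binding domains produced in E. coli were incubated for 1 h on an Agilent 4 × 180k array of primer-extended double-stranded 36-bp intergenic genomic probes with negative controls. Binding intensity is the highest Masliner-normalised natural-log median intensity across replicate spots of either probe orientation, with bound protein detected by Alexa488 anti-GST antibody at 488 nm.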

“AAAATAAAAAAGTGTACACATATTAAAATGTATTTA [CACACA_site4424]” and “ATTATATAAATTATATGTACGTATTTTTTTTTTTTT [XGTACX_site1908]” are within error of each other in “gcPBM binding intensity (ln)” value: 8.82 ± 0.37 for the first, 8.66 ± 0.45 for the second.

Compared with “AAATTATGAACATATTGTACATATATATATATATAT [XGTACX_site8269]”, “AATTAAATTACTTATACACACATAAAATGTCTGTAT [CACACA_site997]” is lower in “gcPBM binding intensity (ln)” value: 9.72 ± 0.028 for the first, 9.1 ± 0.38 for the second.

“CATGTATGTACCATGGTGCAACAATATTTTTAACAA [GTGCAC_site9597]” and “TTTGGGATAAAACAAAGTACTAACAAAATATATAAT [XGTACX_site8240]” are within error of each other in “gcPBM binding intensity (ln)” value: 8.67 ± 0.48 for the first, 8.76 ± 0.45 for the second.

“ATTCTTGTTATATAAGGTACAGAACAAAATATAAAA [XGTACX_site5510]” and “TGCATTTTACTTGTTACACACATATAAAATTAACCA [CACACA_site7387]” are within error of each other in “gcPBM binding intensity (ln)” value: 8.63 ± 0.42 for the first, 8.82 ± 0.42 for the second.

“TTTTTCTATTCCATTCAACACACAAAAATGTATGCT [CACACA_site8268]” and “AAAGTTTTAAGAAAATGTACATAAGTATACATATAT [XGTACX_site1293]” are within error of each other in “gcPBM binding intensity (ln)” value: 8.9 ± 0.41 for the first, 8.72 ± 0.47 for the second.

“AAATGGAGTTAATATTGTACATATATATATATATAT [XGTACX_site5452]” and “TTTTTTTTTTTTTTAACACACATATAAATATTTTTC [CACACA_site6985]” are within error of each other in “gcPBM binding intensity (ln)” value: 9.46 ± 0.38 for the first, 8.66 ± 0.51 for the second.

Going from “TTTTATTATATGGAGGTGCATATATAATAATATAAT [GTGCAC_site9477]” to “ATCGGTAATATTAACACACACATTTATTTATATTTA [CACACA_site6638]”, the “gcPBM binding intensity (ln)” value rises from 8.48 ± 0.3 to 9.13 ± 0.33.

“TTCTTTTTAAATATACTAATTATGTATAAAACAGAA [GTGCAC_negctrl_site131]” and “ATGTATGTAATAAAAAGTACATATGTTCATAATAAA [XGTACX_site842]” are within error of each other in “gcPBM binding intensity (ln)” value: 8.12 ± 0.49 for the first, 9.02 ± 0.42 for the second.

“TTTTCATATATTTATTGTACATATTACATATATAAT [XGTACX_site2425]” and “TTTTATAAATATTTTTGTACACATTTAAATATTATT [XGTACX_site4973]” are within error of each other in “gcPBM binding intensity (ln)” value: 8.89 ± 0.38 for the first, 8.64 ± 0.45 for the second.

“ATTTATAAATCAAAGTGTACATATGTTTTATTTTTT [XGTACX_site804]” and “TTTTTTTAATAAAAGTGTACCAAATTATATACACAT [XGTACX_site6811]” are within error of each other in “gcPBM binding intensity (ln)” value: 8.86 ± 0.43 for the first, 8.69 ± 0.45 for the second.

“AGAGAGAACGGTATAACATGCAATAAATTTCAGAAG [TGCATGCA_site423]” and “TTTTTTTTTTTTTGTACATGCAAATATTATGAACAC [TGCATGCA_site571]” are within error of each other in “gcPBM binding intensity (ln)” value: 8.91 ± 0.49 for the first, 8.63 ± 0.42 for the second.

“AACACATACATATATGCACACATTTTATTCCATTAT [CACACA_site2834]” and “GACAAATTAATCGATTGTACACAATTTGTTTCGTTG [XGTACX_site35]” are within error of each other in “gcPBM binding intensity (ln)” value: 9.31 ± 0.33 for the first, 9.05 ± 0.45 for the second.

“TTCACATATATATAACGTACATTATTATTATTCTGA [XGTACX_site6006]” and “TTTTTTTTTCCTTCTTGTACATATTATATATACATA [XGTACX_site5988]” are within error of each other in “gcPBM binding intensity (ln)” value: 8.69 ± 0.44 for the first, 8.72 ± 0.4 for the second.

“TGGAACGTAATAAAATGTACATACGTTTTTCATATG [XGTACX_site6229]” and “TCTTATTTAATTAAACAAAAGAAAAAGAAAGAAAAG [CACACA_negctrl_site1569]” are within error of each other in “gcPBM binding intensity (ln)” value: 8.79 ± 0.4 for the first, 8.33 ± 0.47 for the second.

TTAGAAGGGATTAAAGTGCAAAATAGGATTAGAGTA and “TACAAGTATAAATAAGCACACATGTGTATATGTACA [CACACA_site7911]” are within error of each other in “gcPBM binding intensity (ln)” value: 8.82 ± 0.71 for the first, 9.25 ± 0.42 for the second.

“ATGTTATATTATAAAAGTACATTTTATTTTTATTTA [XGTACX_site4365]” and “ATTTCCTTTTTCTGTTGTACTCATAAAATAATATGT [XGTACX_site7234]” are within error of each other in “gcPBM binding intensity (ln)” value: 8.54 ± 0.5 for the first, 8.9 ± 0.47 for the second.

“TTAATTTATAAAAACACACACAGGTAAAAAGGTGCA [CACACA_site1177]” and “GTTAAGTGTATATATACACACATATGTAATACATGA [CACACA_site3048]” are within error of each other in “gcPBM binding intensity (ln)” value: 9.16 ± 0.42 for the first, 9.21 ± 0.32 for the second.

“TAATTAAAATTATATATTAGAAAAAACATATAAAAC [CACACA_negctrl_site190]” and “ATATGTAGAATAAAAAAAAAAAAAAAAAAAAAAAAT [CACACA_negctrl_site621]” are within error of each other in “gcPBM binding intensity (ln)” value: 8.54 ± 0.42 for the first, 8.78 ± 0.62 for the second.

“AATATTGAAATAACGCGTACAAAAAAAAGTTATATT [XGTACX_site6559]” and “AAAAAAAGTGACTCCTTACACACTTTACATAATTTA [CACACA_site820]” are within error of each other in “gcPBM binding intensity (ln)” value: 9.08 ± 0.51 for the first, 8.7 ± 0.42 for the second.

First: TAAAAATATATGTATACACACATATATATATATATA [CACACA_site3951]
Second: AATGAAATAATACAATGTACGTTAAAAAAAAATAAA [XGTACX_site7928]
The “gcPBM binding intensity (ln)” value of the first is higher: 9.63 ± 0.26 for the first, 8.82 ± 0.53 for the second.

“TAATATCAAACCTATAGTACATAAGGTATAAAAAAG [XGTACX_site3533]” and “GTATTATTTTATGATGCATGTGTATTTCATATATGC [TGCATGCA_site660]” are within error of each other in “gcPBM binding intensity (ln)” value: 8.86 ± 0.44 for the first, 9.01 ± 0.43 for the second.

“TAACAAAAAGCACTTAGTACATATATATATATATAT [XGTACX_site1099]” and “AATATAACTTTTTGCACACTTAATTTTTTTTTTTAA [CACACA_site3365]” are within error of each other in “gcPBM binding intensity (ln)” value: 9.88 ± 0.44 for the first, 9.01 ± 0.47 for the second.

With “TTTCTTTTTAAATATATACACACCGGGTGTACATAT [CACACA_site3345]” the “gcPBM binding intensity (ln)” value was 9.09 ± 0.38.
